# The list shows a part of the results.
# B1: CCL1 (Coprinopsis cinerea) (protein)
# chain: MDTQAKPPAGRYVIYNRVLSPNGEKLALTYPGYQREALTLTPLHHSANQIWILNNWDATTSSLTPETARNTQVGWGSGNVPIVLPPGNYVWTLASSAGGYIIQDGGKTVYWNAGEAVANTKVSIGGDNGLQARWIFERV
# Tests used:
# Experiment in all cases: glycan array binding signal (z-score within array); higher = stronger binding
# Conditions in all cases: glycan notation: IUPAC condensed, linker removed
# Fuc(a1-2)Gal = biological target: Fuc(a1-2)Gal
# Outline: (§1)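 Glycan array data were curated from 3228 arrays in the Consortium for Functional Glycomics database and kept only where the protein sequence was available. Glycan names were converted to IUPAC-condensed notation, and columns mapping to the same glycan were averaged. The binding signal is a within-array Z-score, averaged across arrays of the same protein sequence at different concentrations or buffers and across linkers. Negative Z-scores can be read as non-binding.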
# Fuc(a1-2)Gal(b1-3)GalNAc = biological target: Fuc(a1-2)Gal(b1-3)GalNAc
# Outline: as §1
# [1] = biological target: Fuc(a1-2)Gal(b1-3)GalNAc(a1-3)[Fuc(a1-2)]Gal(b1-4)Glc
# Outline: as §1
# [2] = biological target: Fuc(a1-2)Gal(b1-3)GalNAc(a1-3)[Fuc(a1-2)]Gal(b1-4)GlcNAc
# Outline: as §1
# [3] = biological target: Fuc(a1-2)Gal(b1-3)GalNAc(b1-3)Gal
# Outline: as §1
# [4] = biological target: Fuc(a1-2)Gal(b1-3)GalNAc(b1-3)Gal(a1-4)Gal(b1-4)Glc
# Outline: as §1
# [5] = biological target: Fuc(a1-2)Gal(b1-3)GalNAc(b1-4)[Neu5Ac(a2-3)]Gal(b1-4)Glc
# Outline: as §1
# Fuc(a1-2)Gal(b1-3)GlcNAc = biological target: Fuc(a1-2)Gal(b1-3)GlcNAc
# Outline: as §1
# [6] = biological target: Fuc(a1-2)Gal(b1-3)GlcNAc(b1-2)Man(a1-3)[Fuc(a1-2)Gal(b1-3)GlcNAc(b1-2)Man(a1-6)]Man(b1-4)GlcNAc(b1-4)GlcNAc
# Outline: as §1
# [7] = biological target: Fuc(a1-2)Gal(b1-3)GlcNAc(b1-2)Man(a1-3)[Fuc(a1-2)Gal(b1-3)GlcNAc(b1-2)Man(a1-6)]Man(b1-4)GlcNAc(b1-4)[Fuc(a1-6)]GlcNAc
# Outline: as §1
# [8] = biological target: Fuc(a1-2)Gal(b1-3)GlcNAc(b1-3)Gal(b1-4)Glc
# Outline: as §1
# [9] = biological target: Fuc(a1-2)Gal(b1-3)GlcNAc(b1-3)GalNAc
# Outline: as §1
# [10] = biological target: Fuc(a1-2)Gal(b1-3)GlcNAc(b1-3)[Fuc(a1-2)Gal(b1-3)GlcNAc(b1-6)]GalNAc
# Outline: as §1
# [11] = biological target: Fuc(a1-2)Gal(b1-3)GlcNAc(b1-3)[Fuc(a1-3)[Gal(b1-4)]GlcNAc(b1-6)]Gal(b1-4)Glc
# Outline: as §1
# [12] = biological target: Fuc(a1-2)Gal(b1-3)GlcNAc(b1-3)[Gal(b1-4)GlcNAc(b1-6)]Gal(b1-4)Glc
# Outline: as §1
# [13] = biological target: Fuc(a1-2)Gal(b1-3)GlcNAc(b1-3)[Neu5Ac(a2-6)Gal(b1-4)GlcNAc(b1-6)]Gal(b1-4)Glc
# Outline: as §1
# [14] = biological target: Fuc(a1-2)Gal(b1-3)GlcNAc6S
# Outline: as §1
# [15] = biological target: Fuc(a1-2)Gal(b1-3)[Fuc(a1-4)]GlcNAc
# Outline: as §1
# [16] = biological target: Fuc(a1-2)Gal(b1-3)[Fuc(a1-4)]GlcNAc(b1-2)Man(a1-3)[Fuc(a1-2)Gal(b1-3)[Fuc(a1-4)]GlcNAc(b1-2)Man(a1-6)]Man(b1-4)GlcNAc(b1-4)GlcNAc
# Outline: as §1
# [17] = biological target: Fuc(a1-2)Gal(b1-3)[Fuc(a1-4)]GlcNAc(b1-2)Man(a1-6)[Fuc(a1-2)Gal(b1-3)[Fuc(a1-4)]GlcNAc(b1-2)Man(a1-3)]Man(b1-4)GlcNAc(b1-4)[Fuc(a1-6)]GlcNAc
# Outline: as §1
# [18] = biological target: Fuc(a1-2)Gal(b1-3)[Fuc(a1-4)]GlcNAc(b1-3)[Fuc(a1-3)[Gal(b1-4)]GlcNAc(b1-6)]Gal(b1-4)Glc
# Outline: as §1
# [19] = biological target: Fuc(a1-2)Gal(b1-3)[Fuc(a1-4)]GlcNAc(b1-3)[Gal(b1-4)GlcNAc(b1-6)]Gal(b1-4)Glc
# Outline: as §1
# Fuc(a1-2)Gal(b1-4)Glc = biological target: Fuc(a1-2)Gal(b1-4)Glc
# Outline: as §1
# Fuc(a1-2)Gal(b1-4)Glc6S = biological target: Fuc(a1-2)Gal(b1-4)Glc6S
# Outline: as §1
# Fuc(a1-2)Gal(b1-4)GlcNAc = biological target: Fuc(a1-2)Gal(b1-4)GlcNAc
# Outline: as §1
# [20] = biological target: Fuc(a1-2)Gal(b1-4)GlcNAc(b1-2)Man
# Outline: as §1
# [21] = biological target: Fuc(a1-2)Gal(b1-4)GlcNAc(b1-2)Man(a1-3)[Fuc(a1-2)Gal(b1-4)GlcNAc(b1-2)Man(a1-6)]Man(b1-4)GlcNAc(b1-4)GlcNAc
# Outline: as §1
# [22] = biological target: Fuc(a1-2)Gal(b1-4)GlcNAc(b1-2)Man(a1-3)[Fuc(a1-2)Gal(b1-4)GlcNAc(b1-2)Man(a1-6)]Man(b1-4)GlcNAc(b1-4)[Fuc(a1-6)]GlcNAc
# Outline: as §1
# [23] = biological target: Fuc(a1-2)Gal(b1-4)GlcNAc(b1-2)[Fuc(a1-2)Gal(b1-4)GlcNAc(b1-4)]Man(a1-3)[Fuc(a1-2)Gal(b1-4)GlcNAc(b1-2)Man(a1-6)]Man(b1-4)GlcNAc(b1-4)GlcNAc
# Outline: as §1
# [24] = biological target: Fuc(a1-2)Gal(b1-4)GlcNAc(b1-3)Gal(b1-4)GlcNAc
# Outline: as §1
binder,measurement,setting,value
B1,glycan array binding signal (z-score),Fuc(a1-2)Gal,-0.154
same,glycan array binding signal (z-score),Fuc(a1-2)Gal(b1-3)GalNAc,-0.156
same,glycan array binding signal (z-score),[1],-0.129
same,glycan array binding signal (z-score),[2],-0.117
same,glycan array binding signal (z-score),[3],-0.113
same,glycan array binding signal (z-score),[4],-0.136
same,glycan array binding signal (z-score),[5],-0.158
same,glycan array binding signal (z-score),Fuc(a1-2)Gal(b1-3)GlcNAc,-0.157
same,glycan array binding signal (z-score),[6],-0.116
same,glycan array binding signal (z-score),[7],-0.127
same,glycan array binding signal (z-score),[8],-0.15
same,glycan array binding signal (z-score),[9],-0.083
same,glycan array binding signal (z-score),[10],-0.118
same,glycan array binding signal (z-score),[11],0.234
same,glycan array binding signal (z-score),[12],-0.158
same,glycan array binding signal (z-score),[13],-0.139
same,glycan array binding signal (z-score),[14],-0.097
same,glycan array binding signal (z-score),[15],-0.14
same,glycan array binding signal (z-score),[16],-0.006
same,glycan array binding signal (z-score),[17],-0.148
same,glycan array binding signal (z-score),[18],0.089
same,glycan array binding signal (z-score),[19],-0.144
same,glycan array binding signal (z-score),Fuc(a1-2)Gal(b1-4)Glc,-0.127
same,glycan array binding signal (z-score),Fuc(a1-2)Gal(b1-4)Glc6S,-0.124
same,glycan array binding signal (z-score),Fuc(a1-2)Gal(b1-4)GlcNAc,-0.142
same,glycan array binding signal (z-score),[20],-0.125
same,glycan array binding signal (z-score),[21],-0.147
same,glycan array binding signal (z-score),[22],-0.117
same,glycan array binding signal (z-score),[23],-0.13
same,glycan array binding signal (z-score),[24],-0.14
